This note sets out measurements from the supplement of paper PMC4604168 (melanoma cell lines).

The other results are listed elsewhere or left out. Repeats are few or missing, and single values can be far off.

Some test systems named below: WM115; WM1716; WM1745; WM3526; WM3619; WM451Lu.
Assay in all cases: cell count relative to DMSO control; melanoma cells; higher = more viable cells
Settings in all cases: library dose: low library concentration; 72 h
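Also: cell number obtained by counting DAPI-stained nuclei in high-throughput microscope images with image analysis software, screen run in 1,536-well plates.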

Consider `Cc1cn(-c2cc(NC(=O)c3ccc(C)c(Nc4nccc(-c5cccnc5)n4)c3)cc(C(F)(F)F)c2)cn1` [nilotinib] + C[C@@H](Oc1cc(-c2cnn(C3CCNCC3)c2)cnc1N)c1c(Cl)ccc(F)c1Cl [Crizotinib] (first compound 0.2 µM, partner dose 0.2 µM), for which the cell count was 104% in the experiment with WM115; 108% in the experiment with WM1716; 110% in the experiment on WM1745; 129% in the experiment with WM3526; 85% with WM3619; 113% in the experiment on WM451Lu.

Take `Cc1cc(Nc2cc(N3CCN(C)CC3)nc(/C=C/c3ccccc3)n2)n[nH]1` + COc1ccc2c(c1)CCC1C2CCC2(C)C(NCCCCCCN3C(=O)C=CC3=O)CCC12 [U73122] (first compound 0.04 µM, partner dose 0.4 µM): the cell count was 93.5% with WM115; 85.7% in the experiment with WM1716; 107% in the experiment on WM1745; 87.2% in the experiment with WM3526; 77.9% with WM3619; 88% in the experiment on WM451Lu.

As to `COc1ccc(C2=N[C@@H](c3ccc(Cl)cc3)[C@@H](c3ccc(Cl)cc3)N2C(=O)N2CCNC(=O)C2)c(OC(C)C)c1` [Nutlin-3] + CS(=O)(=O)c1ccc(C(=O)Nc2ccc(Cl)c(-c3ccccn3)c2)c(Cl)c1 [vismodegib] (first compound 0.1 µM, partner dose 1 µM), the cell count with WM115 is 91.5%; in the experiment on WM1716, 77.1%; in the experiment with WM1745 it was 111%; in the experiment on WM3526, 96.8%; with WM3619, 87.3%; in the experiment with WM451Lu, 95.3%.

Take `CC(C)C[C@H](NC(=O)[C@H](Cc1ccccc1)NC(=O)c1cnccn1)B(O)O` [Bortezomib] + OCCn1cc(-c2cnc3nnn(Cc4ccc5ncccc5c4)c3n2)cn1 [PF04217903] (first compound 0.001 µM, partner dose 1 µM): the cell count with WM115 came out at 80%; in the experiment with WM1716, 42.6%; in the experiment on WM1745, 51.7%; in the experiment with WM3526, 88.2%; in the experiment on WM3619, 25%; in the experiment with WM451Lu, 84%.

Regarding `Cc1cn(-c2cc(NC(=O)c3ccc(C)c(Nc4nccc(-c5cccnc5)n4)c3)cc(C(F)(F)F)c2)cn1` [nilotinib] + O=C(CCCCCCC(=O)Nc1ccccc1)NO [vorinostat] (first compound 0.2 µM, partner dose 0.08 µM), the cell count worked out at 126% with WM115; 83.7% in the experiment on WM1716; 83.3% in the experiment on WM1745; 96.7% with WM3526; 101% in the experiment with WM3619; 87.2% in the experiment on WM451Lu.

On to `Cn1c(=O)n(-c2ccc(C(C)(C)C#N)cc2)c2c3cc(-c4cnc5ccccc5c4)ccc3ncc21` + C[C@@H]1CCN(C(=O)CC#N)C[C@@H]1N(C)c1ncnc2[nH]ccc12 [CP690550] (first compound 0.004 µM, partner dose 1 µM), for which the cell count in the experiment with WM115 was determined as 97.9%; with WM1716 it was 94%; in the experiment with WM1745 it was 88.8%; in the experiment on WM3526, 92.3%; in the experiment with WM3619, 91.1%; in the experiment with WM451Lu, 78.8%.

For `Cc1cc(Nc2cc(N3CCN(C)CC3)nc(/C=C/c3ccccc3)n2)n[nH]1` + O=C(O)c1ccc2c(c1)nc(Nc1cccc(Cl)c1)c1ccncc12 [CX4945] (first compound 0.04 µM, partner dose 0.4 µM), the cell count is 99.5% in the experiment with WM115; 92.2% in the experiment on WM1716; 85.3% with WM1745; 91.6% with WM3526; 106% in the experiment on WM3619; 84.1% in the experiment on WM451Lu.

Consider `COc1ccc(C2=N[C@@H](c3ccc(Cl)cc3)[C@@H](c3ccc(Cl)cc3)N2C(=O)N2CCNC(=O)C2)c(OC(C)C)c1` [Nutlin-3] + Nc1ccn([C@@H]2O[C@H](CO)[C@@H](O)C2(F)F)c(=O)n1 [gemcitabine] (first compound 0.1 µM, partner dose 0.0004 µM), for which the cell count amounted to 97.9% with WM115; 99.2% with WM1716; 79% with WM1745; 88.9% with WM3526; 66.3% in the experiment with WM3619; 111% with WM451Lu.

On to `CC(C)C[C@H](NC(=O)[C@H](Cc1ccccc1)NC(=O)c1cnccn1)B(O)O` [Bortezomib] + Cn1c(Nc2ccc(C(F)(F)F)cc2)nc2cc(Oc3ccnc(-c4ncc(C(F)(F)F)[nH]4)c3)ccc21 [CHIR265] (first compound 0.001 µM, partner dose 0.08 µM), for which the cell count with WM115 is 75.6%; in the experiment on WM1716 it was 22.2%; in the experiment with WM1745 it was 33.1%; with WM3526, 48.5%; in the experiment on WM3619, 7.04%; in the experiment on WM451Lu, 76.6%.

Take `Cc1cc(Nc2cc(N3CCN(C)CC3)nc(/C=C/c3ccccc3)n2)n[nH]1` + O=C(O)c1ccc(-c2c[nH]c3ncc(-c4ccccc4)cc23)cc1C1CCCC1 [GSK650394] (first compound 0.04 µM, partner dose 0.16 µM): the cell count with WM115 came to 91%; in the experiment with WM1716, 92.8%; in the experiment with WM1745, 107%; in the experiment on WM3526, 88.9%; in the experiment with WM3619, 99.7%; with WM451Lu, 75.7%.

Regarding `Cc1cn(-c2cc(NC(=O)c3ccc(C)c(Nc4nccc(-c5cccnc5)n4)c3)cc(C(F)(F)F)c2)cn1` [nilotinib] + COCC[n+]1c2c(n(Cc3cnccn3)c1C)C(=O)c1ccccc1C2=O [YM155] (first compound 0.2 µM, partner dose 0.0004 µM), the cell count in the experiment with WM115 was 113%; in the experiment on WM1716, 100%; with WM1745, 99.1%; with WM3526, 103%; in the experiment with WM3619 it was 103%; in the experiment with WM451Lu, 121%.

As to `Cc1cn(-c2cc(NC(=O)c3ccc(C)c(Nc4nccc(-c5cccnc5)n4)c3)cc(C(F)(F)F)c2)cn1` [nilotinib] + CS(=O)(=O)c1ccc(C(=O)Nc2ccc(Cl)c(-c3ccccn3)c2)c(Cl)c1 [vismodegib] (first compound 0.2 µM, partner dose 1 µM), the cell count amounted to 108% in the experiment with WM115; 100% with WM1716; 112% in the experiment with WM1745; 108% in the experiment with WM3526; 113% in the experiment with WM3619; 106% in the experiment with WM451Lu.

Consider `Cn1c(=O)n(-c2ccc(C(C)(C)C#N)cc2)c2c3cc(-c4cnc5ccccc5c4)ccc3ncc21` + CCCS(=O)(=O)Nc1ccc(F)c(C(=O)c2c[nH]c3ncc(Cl)cc23)c1F [PLX4720] (first compound 0.004 µM, partner dose 0.08 µM), for which the cell count in the experiment with WM115 is 93.3%; in the experiment on WM1716 it was 109%; in the experiment with WM1745, 120%; in the experiment with WM3526, 68.9%; in the experiment on WM3619, 78.8%; in the experiment with WM451Lu, 100%.

As to `COc1ccc(C2=N[C@@H](c3ccc(Cl)cc3)[C@@H](c3ccc(Cl)cc3)N2C(=O)N2CCNC(=O)C2)c(OC(C)C)c1` [Nutlin-3] + Cn1cc(/C=C2\C(=O)Nc3cccnc32)c2ccccc21 [GW441756] (first compound 0.1 µM, partner dose 0.4 µM), the cell count is 80.4% with WM115; 88.1% in the experiment on WM1716; 88.8% in the experiment with WM1745; 110% in the experiment on WM3526; 104% in the experiment with WM3619; 96.9% in the experiment on WM451Lu.

For the compound `Cn1c(=O)n(-c2ccc(C(C)(C)C#N)cc2)c2c3cc(-c4cnc5ccccc5c4)ccc3ncc21` + CN1CCN(c2ccc3nc(-c4c(N)c5c(F)cccc5[nH]c4=O)[nH]c3c2)CC1 [Dovitinib] (first compound 0.004 µM, partner dose 0.1 µM), the cell count with WM115 worked out at 102%; with WM1716 it was 113%; in the experiment on WM1745 it was 114%; with WM3526, 73%; in the experiment on WM3619, 91.7%; with WM451Lu it was 113%.

On to `Cn1c(=O)n(-c2ccc(C(C)(C)C#N)cc2)c2c3cc(-c4cnc5ccccc5c4)ccc3ncc21` + Cn1cncc1[C@@](N)(c1ccc(Cl)cc1)c1ccc2c(c1)c(-c1cccc(Cl)c1)cc(=O)n2C [tipifarnib] (first compound 0.004 µM, partner dose 0.01 µM), for which the cell count came to 79.3% with WM115; 66.7% in the experiment on WM1716; 84.5% with WM1745; 85.7% in the experiment with WM3526; 81.6% in the experiment on WM3619; 81.3% in the experiment on WM451Lu.

Regarding `COc1ccc(C2=N[C@@H](c3ccc(Cl)cc3)[C@@H](c3ccc(Cl)cc3)N2C(=O)N2CCNC(=O)C2)c(OC(C)C)c1` [Nutlin-3] + O=C(O)C(=O)Nc1sc2c(c1C(=O)O)CCNC2 [TCS401] (first compound 0.1 µM, partner dose 1.66667 µM), the cell count in the experiment on WM115 was found to be 92.6%; with WM1716, 96.8%; with WM1745, 88.9%; in the experiment with WM3526, 90.4%; in the experiment on WM3619, 85.4%; in the experiment with WM451Lu, 67.8%.

`Cc1cc(Nc2cc(N3CCN(C)CC3)nc(/C=C/c3ccccc3)n2)n[nH]1` + COCC[n+]1c2c(n(Cc3cnccn3)c1C)C(=O)c1ccccc1C2=O [YM155] (first compound 0.04 µM, partner dose 0.0004 µM): the cell count is 93.7% with WM115; 89.9% in the experiment on WM1716; 87.1% in the experiment on WM1745; 98.1% with WM3526; 105% in the experiment with WM3619; 80.5% in the experiment with WM451Lu.

With `Cc1cc(Nc2cc(N3CCN(C)CC3)nc(/C=C/c3ccccc3)n2)n[nH]1` + Cc1nc(Nc2ncc(C(=O)Nc3c(C)cccc3Cl)s2)cc(N2CCN(CCO)CC2)n1 [dasatanib] (first compound 0.04 µM, partner dose 0.004 µM), the cell count in the experiment with WM115 was 93.5%; with WM1716 it was 92%; in the experiment on WM1745, 100%; with WM3526, 87.8%; in the experiment on WM3619, 91.3%; with WM451Lu, 99.1%.

On to `CC(C)C[C@H](NC(=O)[C@H](Cc1ccccc1)NC(=O)c1cnccn1)B(O)O` [Bortezomib] + CC(C)CCN1c2nc(Nc3cc(F)c(O)c(F)c3)ncc2N(C)C(=O)C1C [BID1870] (first compound 0.001 µM, partner dose 0.2 µM), for which the cell count worked out at 92.2% in the experiment with WM115; 24.9% in the experiment with WM1716; 64.8% in the experiment on WM1745; 79.6% in the experiment with WM3526; 11.9% with WM3619; 84.3% with WM451Lu.

On to `Cc1cn(-c2cc(NC(=O)c3ccc(C)c(Nc4nccc(-c5cccnc5)n4)c3)cc(C(F)(F)F)c2)cn1` [nilotinib] + O=C(O)C(=O)Nc1sc2c(c1C(=O)O)CCNC2 [TCS401] (first compound 0.2 µM, partner dose 1.66667 µM), for which the cell count with WM115 was 114%; with WM1716 it was 104%; in the experiment on WM1745, 87.1%; in the experiment with WM3526, 93.8%; in the experiment on WM3619, 93.7%; in the experiment on WM451Lu it was 101%.

As to `Cc1cc(Nc2cc(N3CCN(C)CC3)nc(/C=C/c3ccccc3)n2)n[nH]1` + C#Cc1cccc(Nc2ncnc3cc(OCCOC)c(OCCOC)cc23)c1 [erlotinib] (first compound 0.04 µM, partner dose 0.8 µM), the cell count in the experiment on WM115 was determined as 86.4%; in the experiment with WM1716, 83.4%; in the experiment with WM1745, 79.9%; with WM3526, 89.3%; with WM3619 it was 84.9%; in the experiment on WM451Lu, 100%.

With `CC(C)C[C@H](NC(=O)[C@H](Cc1ccccc1)NC(=O)c1cnccn1)B(O)O` [Bortezomib] + Cc1ccc(NC(=O)c2cccc(N(C)C)c2)cc1NC(=O)c1ccc(O)cc1 [ZM336372] (first compound 0.001 µM, partner dose 2 µM), the cell count in the experiment on WM115 was 106%; with WM1716, 33.7%; with WM1745, 50.9%; with WM3526, 84%; with WM3619 it was 14.1%; in the experiment with WM451Lu, 91.7%.

As to `Cc1cc(Nc2cc(N3CCN(C)CC3)nc(/C=C/c3ccccc3)n2)n[nH]1` + Clc1ccc(Nc2nnc(Cc3ccncc3)c3ccccc23)cc1 [vatalanib] (first compound 0.04 µM, partner dose 2 µM), the cell count was determined as 88.1% in the experiment with WM115; 94.4% in the experiment with WM1716; 85.3% with WM1745; 103% in the experiment on WM3526; 94.2% in the experiment with WM3619; 69.5% in the experiment on WM451Lu.

Take `Cc1cc(Nc2cc(N3CCN(C)CC3)nc(/C=C/c3ccccc3)n2)n[nH]1` + COC(=O)c1sccc1S(=O)(=O)Nc1ccc(Nc2ccccc2)cc1OC [GSK0660] (first compound 0.04 µM, partner dose 1 µM): the cell count in the experiment on WM115 is 103%; in the experiment with WM1716 it was 97.9%; in the experiment on WM1745 it was 95.1%; in the experiment on WM3526 it was 99.4%; with WM3619, 101%; in the experiment with WM451Lu it was 95.6%.
